Assay results taken from PubChem BioAssay AID1159614 (National Center for Advancing Translational Sciences (NCATS), 2016).
The whole screen tested about 45,000 compounds, of which about 65 (0.1%) were called active. The call rests on the fitted dose curve; in most records, active means well fitted activation curve with a large enough effect; inconclusive means small, poorly fitted or top-dose-only effect; inactive means no such curve, though single readings can be large or run the other way. This is one part of the list.

The compounds below were run against Galactocerebrosidase (Homo sapiens) (UniProt P54803) (assay: A Novel Cell-Based Assay to Identify Small Molecules for B -Galactocerebrosidase). Settings: 145M-Twi-hGALC-G270D cells (Twitcher mouse brain line with human GALC G270D), HMU-beta-Gal fluorescence, 48 h; series mostly up to 57.5 µM; activation: at the top concentration.
Sequence of UniProt P54803 (P54803 whole entry, looked up): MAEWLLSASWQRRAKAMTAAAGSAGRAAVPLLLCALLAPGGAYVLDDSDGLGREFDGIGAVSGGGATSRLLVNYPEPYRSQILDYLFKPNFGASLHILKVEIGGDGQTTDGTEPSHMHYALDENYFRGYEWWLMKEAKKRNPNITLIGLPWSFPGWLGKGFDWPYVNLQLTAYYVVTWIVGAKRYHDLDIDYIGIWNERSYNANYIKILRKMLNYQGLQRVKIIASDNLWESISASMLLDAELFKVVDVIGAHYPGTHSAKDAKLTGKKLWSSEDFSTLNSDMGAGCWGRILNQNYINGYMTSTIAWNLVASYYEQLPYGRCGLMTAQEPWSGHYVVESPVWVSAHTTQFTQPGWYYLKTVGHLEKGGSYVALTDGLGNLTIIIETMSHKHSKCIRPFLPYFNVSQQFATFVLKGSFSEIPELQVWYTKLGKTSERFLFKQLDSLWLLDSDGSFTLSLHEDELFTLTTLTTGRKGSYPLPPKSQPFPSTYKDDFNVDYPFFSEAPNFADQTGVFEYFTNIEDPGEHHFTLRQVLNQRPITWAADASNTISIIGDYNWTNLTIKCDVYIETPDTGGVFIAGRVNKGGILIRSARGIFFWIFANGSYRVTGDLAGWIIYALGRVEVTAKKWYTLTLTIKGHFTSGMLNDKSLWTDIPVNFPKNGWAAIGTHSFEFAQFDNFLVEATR
Procedure, shortened: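 Mutant human GALC (G270D), stably expressed in a Twitcher mouse brain cell line lacking endogenous GALC, is measured in live-treated cells via 6-hexadecanoylamino-4-methylumbelliferyl-β-galactoside hydrolysis (0.1 mM final, pH 5.2) with fluorescent detection.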
Further: 0% is about no effect; nearly all actives have a fitted effect of over 65% in size.

activation, inactive:
COc1ccc(NC(=O)CC2C(=O)N(c3ccc(F)cc3)C(=O)N2Cc2ccc3c(c2)OCO3)cc1 (configuration not stated) -13.3%, CCCn1c(=N)c(C(=O)NC2CCCC2)cc2c(=O)n3cccc(C)c3nc21 -12.4%, COc1ccc(/C=C(/C#N)c2nc(-c3ccc(-c4ccccc4)cc3)cs2)cc1OC 7.92%, COc1cc(NC(=O)CCn2cnc3ccccc3c2=O)cc(OC)c1 -19.9%, CCc1cccc(C)c1NC(=O)c1cc(S(=O)(=O)N2CCOCC2)cn1C -0.836%, CCOC(=O)c1ccccc1NC(=O)n1ncc2cc(Cl)ccc21 -8.91%, Cc1noc(C)c1S(=O)(=O)Nc1ccc(C(=O)Nc2ccc(Br)cc2)cc1 -22.4%, CCCCOc1ccc(CNC(=O)c2cc3n(n2)CCCN(Cc2ccc(C)cc2)C3=O)cc1 -11.2%, COc1ccc(OCCn2c(C)nc3cc(C)c(C)cc32)cc1 -7.77%, CCCCSCCCNC(=O)c1cn(CC)c2ccc(S(=O)(=O)N3CCCCCC3)cc2c1=O 4.16%, CCOc1cccc(C(=O)Nc2ccc3oc(-c4cccnc4)nc3c2)c1 -13%, C[C@H](NC(CCc1ccccc1)C(=O)O)C(=O)N1CCC[C@H]1C(=O)O (some centres not stated) -18.5%, CC(C)c1ccc(NC(=O)Cn2nnc(C(=O)NCc3cccs3)c2N)cc1 -3.92%, Fc1ccc(Nc2nc(Nc3ccc(F)cc3)nc(N3CCOCC3)n2)cc1 -10.7%, CCCCn1c(SCC(=O)Nc2ccc(F)cc2)nc2c(sc3ccccc32)c1=O -8.41%, COc1ccc(C(=O)NCC(c2ccc3c(c2)OCO3)N2CCN(c3ccc(F)cc3)CC2)cc1 (configuration not stated) -16.4%, Cc1ccc(N(CC(C)C)S(=O)(=O)c2nnc(NC(=O)c3cccs3)s2)cc1 -13.3%, Cc1ccc2oc3c(c(=O)c2c1)C(c1ccc(OCC(N)=O)cc1)N(Cc1ccc2c(c1)OCO2)C3=O (configuration not stated) -11.1%, CNC(=O)CSc1nnc(NC(=O)Nc2ccccc2)s1 -6.96%, O=C(CSc1nnc(-c2ccc(Br)cc2)n1-c1ccccc1)c1ccccc1 -13.1%, CCOc1ccccc1N(CC(=O)Nc1ccc(OC)c(Cl)c1)S(=O)(=O)c1ccccc1 -16.5%, CCOc1ccc(-c2cc(C(=O)N3CCN(c4cccc(C(F)(F)F)c4)CC3)c3ccccc3n2)cc1 -16.6%, COc1ccc(NC(=O)C(=O)NCC2(c3ccccc3)CCCC2)c(OC)c1 -24.3%, COc1ccccc1CNC(=O)Cn1c(=O)ccc2cc(S(=O)(=O)N3CCCC3)ccc21 -21.5%, CC1CCCCN1C(=O)CSc1nnc(-c2ccccc2Cl)o1 (configuration not stated) -9.34%, CCOc1ccc(N(CC)S(=O)(=O)N2CCCC(C(=O)NCCc3ccccc3OC)C2)cc1 (configuration not stated) -21.3%, COc1ccc(-c2cn3nc(N4CCC(C(=O)Nc5ccc(C)cc5)CC4)sc3n2)cc1 -8%, Cc1cccc(Oc2coc3cc(OCC(=O)NC4CCCCC4)ccc3c2=O)c1 -24.4%, CCOCN(C(=O)Cn1cnc2cc(C)c(C)cc21)c1c(C)cccc1CC 2.12%, CCOc1ccc(/C=C/c2nc(C#N)c(N3CCN(c4ccccc4)CC3)o2)cc1 -6.3%, COc1ccc(CNC(=O)CN2C(=O)COc3ccc(S(=O)(=O)N4CCOCC4)cc32)cc1 -19.2%, Cc1ccc2oc(-c3cc(NC(=O)c4cccs4)cc(C)c3O)nc2c1 -11.3%, COc1ccc(Br)cc1CNC(=O)C1COc2ccccc2C1 (configuration not stated) -7.22%, O=C(Nc1ccc(C(=O)N2CCN(c3ccc(Cl)cc3)CC2)cc1)c1nsc2ccccc12 -11%, CCOC(=O)N1CCN(C(=O)CN(c2cc(C)ccc2OC)S(=O)(=O)c2ccc(C)cc2)CC1 -5.9%, CC(C)(C)c1ccc(-c2noc(CCC(=O)Nc3cccc(Cl)c3)n2)cc1 -12.5%, Cc1ccc(-c2nnc(Nc3cccc(C(F)(F)F)c3)c3ccccc23)cc1S(=O)(=O)N1CCOCC1 -4.59%, Cc1cncn1CCc1nc2c3ccccc3nc(SCC(=O)Nc3ccccc3F)n2n1 -3.36%, O=C(c1ccc(CS(=O)(=O)c2c(Cl)cccc2Cl)o1)N1CCN(c2ccccc2)CC1 -0.508%, Cc1ccc(-n2c(SCC(N)=O)nc3c([nH]c4ccccc43)c2=O)cc1 -2.57%, Cc1ccc(Cn2c(C)c(CNC(C)c3ccccc3)c(C(=O)O)c2C)cc1 (configuration not stated) -10.8%, Cc1ccc(Cl)cc1N1CCN(c2ncnc3onc(-c4ccc(F)cc4)c23)CC1 -0.0363%, COC(=O)c1sc2cccc(F)c2c1S(=O)(=O)N1CCN(c2ccc(C)cc2C)CC1 -6.66%, CC1CCN(S(=O)(=O)c2nnc(NC(=O)c3cccc(F)c3)s2)CC1 -19.2%, Cc1ccc(NC(=O)c2cc(S(=O)(=O)N3CCCC3)c[nH]2)c(C)c1 -13.7%, Cc1cccc(N2CCN(C(=O)c3ccc4c(c3)c(C)c(C)n4C)CC2C)c1 (configuration not stated) 0.36%, COc1ccc(OC)c(S(=O)(=O)NCCc2csc3nc(-c4ccccc4)nn23)c1 -12.4%, COc1ccccc1N1CCN(c2cc(C)nc3nc(-c4ccc(Cl)cc4)nn23)CC1 -12.7%, COc1nc(-c2ccc(C)cc2)ccc1-c1noc(-c2ccc(C(C)(C)C)cc2)n1 -13.6%, CCc1ccc(-n2nc(C)c3c(C(=O)Nc4cc(C)ccc4C)cc(C)nc32)cc1 -6.8%, CCOc1ccccc1CNC(=O)C1CCCN(S(=O)(=O)c2ccc3c(ccn3C)c2)C1 (configuration not stated) -13.9%, Cc1ccc(N2CCN(c3nc4c(S(=O)(=O)c5ccc(C)c(C)c5)nnn4c4ccccc34)CC2)c(C)c1 -3.02%, CCc1cccc(C)c1NC(=O)CN(C)S(=O)(=O)c1cccc2nsnc12 -13.3%, Cc1c(C(=O)N(Cc2ccc(N(C)C)cc2)CC2CCCO2)oc2ccc(Br)cc12 (configuration not stated) -13.9%, CCc1c(C)c2ccc(O)c(CN3CCN(c4ccccc4)CC3)c2oc1=O -16.8%, CC(=O)N1CCc2cc(Br)cc(S(=O)(=O)CCC(=O)Nc3ccc(C)cc3Cl)c21 -14.5%, CCOc1ccc2oc(=O)cc(CN3CCN(c4ccc(Cl)cc4)CC3)c2c1 6.98%, CCOC(=O)c1c(NC(=O)COc2ccc(Cl)cc2C)sc(C(C)=O)c1C -14.5%, CCN1CCN(c2cc(C)c3cc(NC(=O)c4ccccc4F)ccc3n2)CC1 -7.52%, Cc1ccc(S(=O)(=O)c2cn(C)c3cc(N4CCCCC4)c(F)cc3c2=O)cc1 -13.5%, COc1ccc(C)cc1NC(=O)N1CCC(CN2CCC(C)CC2)CC1 -9.38%, Cc1cc(OCC(=O)NCC2(N3CCOCC3)CCCCC2)ccc1Cl -0.803%, CCc1noc(-c2ccc(N3CCCCC3)c([N+](=O)[O-])c2)n1 -17.5%, CCCN(CCC)CCNC(=O)c1cc(-c2ccc(Br)s2)nc2ccccc12 12.1%, Brc1ccc2nc(-c3ccccc3)c(Nc3ccc4c(c3)OCO4)n2c1 -8.25%, CCC(=O)N1CCc2cc(CNC(=O)Nc3cc(Cl)ccc3C(=O)OC)ccc21 -16.8%, CCc1cccc(NC(=O)C(CC(C)C)NS(=O)(=O)c2ccc3c(c2)oc(=O)n3C)c1 (configuration not stated) -38.4%, COc1ccccc1CN1CCC(CNC(=O)c2cnn(-c3ccc(C)c(C)c3)c2C2CCN(C(=O)OC(C)(C)C)CC2)CC1 -7.85%, Cc1ccc(CN2C(=O)c3ccccc3Sc3ccc(C(=O)NCCCN4CCOCC4)cc32)cc1 2.74%, Cc1cc(Cl)ccc1OCc1cc(=O)n2c3c(sc2n1)CCCC3 -19%, Cn1nnnc1SCCNCc1ccc(OCc2ccc(Cl)cc2)cc1 6.24%, O=C(Nc1cccc(Cl)c1)C1CCCN1S(=O)(=O)c1cccc2cccnc12 (configuration not stated) -7.75%, CCc1ccc(CNC(=O)CN2C(=O)CCn3nc(-c4cn(C)c5ccccc45)cc32)cc1 -23.8%, COc1ccccc1-c1nnc(SCC(=O)c2ccc(F)cc2)n1-c1ccccc1 -36%, COc1ccc(C(=O)Nc2ccc(N3CCOCC3)c(C(F)(F)F)c2)cc1OC 7.26%, Cc1cccc(NC(=O)CSc2nc(=O)n(Cc3cccnc3)c3c2CCC3)c1C -7.69%, C[C@H]1O[C@@H](n2cc(F)c(=O)[nH]c2=O)[C@H](O)[C@@H]1O -13.2%, Cc1oc(-c2cccc(Cl)c2)nc1CN1CCC(C(=O)NCCc2ccc(Cl)cc2)CC1 -6.77%, COc1cccc(OCC(=O)Nc2nnc3n2CCS3)c1 -10.8%, CCc1ccc(C2=C(C)C(N3CCC(C(=O)NCCc4ccco4)CC3)=NS2(=O)=O)cc1 -17.8%, COc1ccc(NC(=O)c2cc3c(=O)n(Cc4cccnc4)ccc3nc2C)cc1Cl -17.6%, COc1ccccc1NC(=O)c1cc(S(=O)(=O)N2CCc3ccccc32)ccc1F -5.74%, COc1ccc(S(=O)(=O)c2cn(Cc3ccccc3)c3ccc(OC)cc3c2=O)cc1 -11.4%, O=[N+]([O-])c1nccn1CO[C@@H](CO)[C@H](O)CO -5.87%, COc1cc(-c2nnc(SCC(=O)Oc3ccccc3Cl)o2)cc(OC)c1OC -8.56%, CN(C)c1ccc(C(CNS(=O)(=O)c2ccc(F)cc2)N2CCc3ccccc32)cc1 (configuration not stated) 8.85%, Cc1cccc(N2CCN(c3c4c(nc5nncn35)CCC4)CC2)c1C 8.63%, C=Cc1ccc(Cn2c(=O)cc(C)c3c(C)nn(C)c32)cc1 -11.4%, COc1ccccc1Cc1nc2ccccc2nc1SCC(=O)N1CCC(C)CC1 -12.4%, Cc1cccc(C(=O)Nc2ccc(N3CCN(c4ccc(F)cc4)CC3)c(C(=O)O)c2)c1 -19.2%, CCOC(=O)c1cc(-c2ccccc2)n(CCCC(=O)Nc2cc(C)ccc2OC)c1C -14.5%, O=c1c(N2CCc3ccccc3C2)csc2ccc(Br)cc12 -25.1%, CC(C)CCN(Cc1ccco1)C(=O)Cn1ncc2c([nH]c3ccccc32)c1=O -2.8%, COc1ccccc1NC(=O)c1cc(C2CC2)nc2c1c(C)nn2-c1ccc(C)cc1 -4.06%, CN1C(=O)c2[nH]nc(-c3ccc(F)cc3)c2C1c1ccccn1 (configuration not stated) -25.6%, COc1ccc(S(=O)(=O)c2cn(Cc3ccccc3)c3cc(F)c(F)cc3c2=O)cc1 -18.4%, O=c1c(S(=O)(=O)c2ccc(Cl)cc2)cn(Cc2ccc(F)cc2)c2ccc(F)cc12 2.63%
